# Data: US20220340678A1
# B1: scIL-10:CL:CH1:Fc (scIL10 3aa linker) (Fc fusion, from a related filing)
# chain: SPGQGTQSENSCTHFPGNLPNMLRDLRDAFSRVKTFFQMKDQLDNLLLKESLLEDFKGYLGCQALSEMIQFYLEEVMPQAENQDPDIKAHVNSLGENLKTLRLRLRRCHRFLPCENKSKAVEQVKNAFNKLQEKGIYKAMSEFDIFINYIEAYMTMKIRNGGGSPGQGTQSENSCTHFPGNLPNMLRDLRDAFSRVKTFFQMKDQLDNLLLKESLLEDFKGYLGCQALSEMIQFYLEEVMPQAENQDPDIKAHVNSLGENLKTLRLRLRRCHRFLPCENKSKAVEQVKNAFNKLQEKGIYKAMSEFDIFINYIEAYMTMKIRNGGGGSGGGGSRTVAAPSVFIFPPSDEQLKSGTASVVCLLNNFYPREAKVQWKVDNALQSGNSQESVTEQDSKDSTYSLSSTLTLSKADYEKHKVYACEVTHQGLSSPVTKSFNRGECGGGGSGGGGSGGGGSGGGGSASTKGPSVFPLAPSSKSTSGGTAALGCLVKDYFPEPVTVSWNSGALTSGVHTFPAVLQSSGLYSLSSVVTVPSSSLGTQTYICNVNHKPSNTKVDKRV[omitted - human IgG1 Fc]
# Molecular target: IL-10 receptor on human immune cells (human)
# Assay: cell-based or functional assay
binder,measurement,value
B1,"STAT3 phosphorylation potency, B cells",0.057 pM
same,"STAT3 phosphorylation potency, CD4 Central Memory T cells",80.6 pM
same,"STAT3 phosphorylation potency, Monocytes",0.06 pM
